# According to the supplement of paper PMC8728848:
# Some of the results follow.
# B1: GSL-I (Griffonia simplicifolia) (protein)
# chain: FNLPNFWSDVKDNIIFQGDANTTAGTLQLCKTNQYGNPLQYRAGRALYSDPVQLWDNKTGSVASFYTEFTFFLKITGDGPADGLAFFLAPPDSDVKDAGAYLGLFNKSTATQPSKNQVVAVEFDTWKNTDFPEPSYRHIGINVNSIVSVATKRWEDSDIFSGKIATARISYDGSAKILTVVLSYPDGADYILSHSVDLSKNLPNPIRVGISASTGANQFLTVYVLSWRFSSALQSTSVNAAMGPEIIRTVV
# Legend:
# Test in all cases: glycan array binding signal (z-score within array); higher = stronger binding
# Conditions in all cases: glycan notation: IUPAC condensed, linker removed
# [1] = molecular target: Gal(a1-3)Gal(b1-3)GlcNAc(b1-6)GalNAc
# Summary of the method: (§1)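 Glycan array data came from 3228 arrays in the Consortium for Functional Glycomics database, and only arrays with an available protein sequence were kept. Glycan names were put into IUPAC-condensed notation, and columns mapping to the same glycan were averaged. The binding signal is a within-array Z-score, averaged across arrays of one protein sequence run at different concentrations or buffers and across linkers. A negative Z-score can be read as non-binding.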
# [2] = molecular target: Gal(a1-3)Gal(b1-3)[Fuc(a1-4)]GlcNAc(b1-2)Man(a1-3)[Gal(a1-3)Gal(b1-3)[Fuc(a1-4)]GlcNAc(b1-2)Man(a1-6)]Man(b1-4)GlcNAc(b1-4)GlcNAc
# Summary of the method: as §1
# Gal(a1-3)Gal(b1-4)Glc = molecular target: Gal(a1-3)Gal(b1-4)Glc
# Summary of the method: as §1
# Gal(a1-3)Gal(b1-4)GlcNAc = molecular target: Gal(a1-3)Gal(b1-4)GlcNAc
# Summary of the method: as §1
# [3] = molecular target: Gal(a1-3)Gal(b1-4)GlcNAc(b1-2)Man
# Summary of the method: as §1
# [4] = molecular target: Gal(a1-3)Gal(b1-4)GlcNAc(b1-2)Man(a1-3)[Gal(a1-3)Gal(b1-4)GlcNAc(b1-2)Man(a1-6)]Man(b1-4)GlcNAc(b1-4)GlcNAc
# Summary of the method: as §1
# [5] = molecular target: Gal(a1-3)Gal(b1-4)GlcNAc(b1-3)GalNAc
# Summary of the method: as §1
# [6] = molecular target: Gal(a1-3)Gal(b1-4)GlcNAc(b1-6)GalNAc
# Summary of the method: as §1
# [7] = molecular target: Gal(a1-3)Gal(b1-4)[Fuc(a1-3)]GlcNAc
# Summary of the method: as §1
# [8] = molecular target: Gal(a1-3)Gal(b1-4)[Fuc(a1-3)]GlcNAc(b1-2)Man(a1-3)[Gal(a1-3)Gal(b1-4)[Fuc(a1-3)]GlcNAc(b1-2)Man(a1-6)]Man(b1-4)GlcNAc(b1-4)GlcNAc
# Summary of the method: as §1
# Gal(a1-3)GalNAc = molecular target: Gal(a1-3)GalNAc
# Summary of the method: as §1
# [9] = molecular target: Gal(a1-3)[Gal(a1-4)]Gal(b1-4)GlcNAc
# Summary of the method: as §1
# [10] = molecular target: Gal(a1-4)Gal(b1-3)GlcNAc(b1-2)Man(a1-3)[Gal(a1-4)Gal(b1-3)GlcNAc(b1-2)Man(a1-6)]Man(b1-4)GlcNAc(b1-4)GlcNAc
# Summary of the method: as §1
# Gal(a1-4)Gal(b1-4)Glc = molecular target: Gal(a1-4)Gal(b1-4)Glc
# Summary of the method: as §1
# Gal(a1-4)Gal(b1-4)GlcNAc = molecular target: Gal(a1-4)Gal(b1-4)GlcNAc
# Summary of the method: as §1
# [11] = molecular target: Gal(a1-4)Gal(b1-4)GlcNAc(b1-2)Man(a1-3)[Gal(a1-4)Gal(b1-4)GlcNAc(b1-2)Man(a1-6)]Man(b1-4)GlcNAc(b1-4)GlcNAc
# Summary of the method: as §1
# [12] = molecular target: Gal(a1-4)Gal(b1-4)GlcNAc(b1-3)Gal(b1-4)Glc
# Summary of the method: as §1
# Gal(a1-4)GlcNAc = molecular target: Gal(a1-4)GlcNAc
# Summary of the method: as §1
# Gal(a1-6)Glc = molecular target: Gal(a1-6)Glc
# Summary of the method: as §1
# Gal(b1-2)Gal = molecular target: Gal(b1-2)Gal
# Summary of the method: as §1
# Gal(b1-3)Gal = molecular target: Gal(b1-3)Gal
# Summary of the method: as §1
# Gal(b1-3)Gal(b1-4)GlcNAc = molecular target: Gal(b1-3)Gal(b1-4)GlcNAc
# Summary of the method: as §1
# Gal(b1-3)GalNAc = molecular target: Gal(b1-3)GalNAc
# Summary of the method: as §1
# [13] = molecular target: Gal(b1-3)GalNAc(a1-3)[Fuc(a1-2)]Gal(b1-4)Glc
# Summary of the method: as §1
# [14] = molecular target: Gal(b1-3)GalNAc(a1-3)[Fuc(a1-2)]Gal(b1-4)GlcNAc
# Summary of the method: as §1
# Gal(b1-3)GalNAc(b1-3)Gal = molecular target: Gal(b1-3)GalNAc(b1-3)Gal
# Summary of the method: as §1
# [15] = molecular target: Gal(b1-3)GalNAc(b1-3)Gal(a1-4)Gal(b1-4)Glc
# Summary of the method: as §1
# [16] = molecular target: Gal(b1-3)GalNAc(b1-4)Gal(b1-4)Glc
# Summary of the method: as §1
# [17] = molecular target: Gal(b1-3)GalNAc(b1-4)[Neu5Ac(a2-3)]Gal(b1-4)Glc
# Summary of the method: as §1
# Gal(b1-3)GlcNAc = molecular target: Gal(b1-3)GlcNAc
# Summary of the method: as §1
# [18] = molecular target: Gal(b1-3)GlcNAc(a1-3)Gal(b1-4)GlcNAc
# Summary of the method: as §1
# [19] = molecular target: Gal(b1-3)GlcNAc(a1-6)Gal(b1-4)GlcNAc
# Summary of the method: as §1
# Gal(b1-3)GlcNAc(b1-2)Man = molecular target: Gal(b1-3)GlcNAc(b1-2)Man
# Summary of the method: as §1
# [20] = molecular target: Gal(b1-3)GlcNAc(b1-2)Man(a1-3)[Gal(b1-3)GlcNAc(b1-2)Man(a1-6)]Man(b1-4)GlcNAc(b1-4)GlcNAc
# Summary of the method: as §1
# [21] = molecular target: Gal(b1-3)GlcNAc(b1-2)Man(a1-3)[Gal(b1-3)GlcNAc(b1-2)Man(a1-6)]Man(b1-4)GlcNAc(b1-4)[Fuc(a1-6)]GlcNAc
# Summary of the method: as §1
# [22] = molecular target: Gal(b1-3)GlcNAc(b1-2)Man(a1-3)[GlcNAc(b1-4)][Gal(b1-3)GlcNAc(b1-2)Man(a1-6)]Man(b1-4)GlcNAc(b1-4)GlcNAc
# Summary of the method: as §1
# [23] = molecular target: Gal(b1-3)GlcNAc(b1-2)[Gal(b1-3)GlcNAc(b1-6)]Man(a1-6)[Gal(b1-3)GlcNAc(b1-2)Man(a1-3)]Man(b1-4)GlcNAc(b1-4)GlcNAc
# Summary of the method: as §1
binder,measurement,setting,value
B1,glycan array binding signal (z-score),[1],0
same,glycan array binding signal (z-score),[2],0.379
same,glycan array binding signal (z-score),Gal(a1-3)Gal(b1-4)Glc,0.241
same,glycan array binding signal (z-score),Gal(a1-3)Gal(b1-4)GlcNAc,1.43
same,glycan array binding signal (z-score),[3],0.182
same,glycan array binding signal (z-score),[4],5.7
same,glycan array binding signal (z-score),[5],0.375
same,glycan array binding signal (z-score),[6],0.752
same,glycan array binding signal (z-score),[7],3.4
same,glycan array binding signal (z-score),[8],0.283
same,glycan array binding signal (z-score),Gal(a1-3)GalNAc,-0.09
same,glycan array binding signal (z-score),[9],1.01
same,glycan array binding signal (z-score),[10],9.69
same,glycan array binding signal (z-score),Gal(a1-4)Gal(b1-4)Glc,1.26
same,glycan array binding signal (z-score),Gal(a1-4)Gal(b1-4)GlcNAc,1.82
same,glycan array binding signal (z-score),[11],3.15
same,glycan array binding signal (z-score),[12],1.54
same,glycan array binding signal (z-score),Gal(a1-4)GlcNAc,4.53
same,glycan array binding signal (z-score),Gal(a1-6)Glc,-0.12
same,glycan array binding signal (z-score),Gal(b1-2)Gal,-0.261
same,glycan array binding signal (z-score),Gal(b1-3)Gal,-0.204
same,glycan array binding signal (z-score),Gal(b1-3)Gal(b1-4)GlcNAc,-0.214
same,glycan array binding signal (z-score),Gal(b1-3)GalNAc,-0.165
same,glycan array binding signal (z-score),[13],-0.176
same,glycan array binding signal (z-score),[14],-0.173
same,glycan array binding signal (z-score),Gal(b1-3)GalNAc(b1-3)Gal,-0.276
same,glycan array binding signal (z-score),[15],-0.208
same,glycan array binding signal (z-score),[16],-0.115
same,glycan array binding signal (z-score),[17],-0.197
same,glycan array binding signal (z-score),Gal(b1-3)GlcNAc,-0.197
same,glycan array binding signal (z-score),[18],-0.29
same,glycan array binding signal (z-score),[19],-0.28
same,glycan array binding signal (z-score),Gal(b1-3)GlcNAc(b1-2)Man,-0.124
same,glycan array binding signal (z-score),[20],-0.092
same,glycan array binding signal (z-score),[21],-0.147
same,glycan array binding signal (z-score),[22],-0.271
same,glycan array binding signal (z-score),[23],0.055
